# ChEMBL document CHEMBL4888484, “Replenishing the malaria drug discovery pipeline: Screening and hit evaluation of the MMV Hit Generation Library 1 (HGL1) against asexual blood stage Plasmodium falciparum ,using a nano luciferase reporter read-out” (2022)
# The campaign covered roughly 4,800 compounds. About 410 (8.5%) showed an effect of 50% or more. Some of the results follow.
# Tested on: Plasmodium falciparum
# Experiment: Confirmatory screen in NF54 pLDH assay, in single point, at 2uM, 72h
# Type: functional, Erythrocyte
# Details: timepoint 72 hour
row,SMILES,% Inhibition
1,Cc1nc(COC(=O)c2c[nH]nc2-c2c(F)cccc2F)no1,7%
2,Cc1cc(C)n(NC(=O)CCn2nc(C(F)(F)F)c(Br)c2C2CC2)c(=O)c1,10%
3,Cc1cccc(Cn2ccn3nc(-c4cccc5ccccc45)cc3c2=O)c1,-6%
4,Cc1cc(C)c(NC(=O)CN(C)C(=O)NCc2ccco2)c(C)c1,-8%
5,CCNC(=O)N1CCCC[C@@]1(C)c1noc(-c2ccc(F)cc2)n1,11%
6,Cc1cc(NC(=O)c2c(C)sc3ncnc(N4CCCC4)c23)ccc1F,7%
7,COc1ccc(OC)c(Nc2cc(C)nc3nnnn23)c1,-6%
8,Cc1noc(C2CCN(CC(=O)Nc3ccccc3C(=O)NCC(C)C)CC2)n1,1%
9,CC(C)(C)NC1=Nc2ccccc2N[C@]12CCCN(C(=O)COc1ccccc1)C2,-15%
10,CCS(=O)(=O)Nc1cc2c(C(C)=O)c(C)oc2cc1C,7%
11,CCOC(=O)c1cnn(C)c1S(=O)(=O)N1CCCCC1,2%
12,COc1ccc([C@H]2[C@H](C(=O)NC3CCCCCC3)CCC(=O)N2C)cc1,-16%
13,CCc1nnc2ccc(S(=O)(=O)Nc3ccc(Cl)cc3)cn12,14%
14,CCc1cc(C(=O)N2CCC3(CC2)C[C@H](c2ccccc2)C(=O)N3C)no1,-4%
15,COc1cccc(S(=O)(=O)N2CCCN(Cc3ccncc3)[C@H](c3ccccc3)CC(=O)NCC2)c1,86%
16,Cc1nsc(N[C@@H]2C=C[C@H](CO)C2)n1,7%
17,COc1cccc2c(N3CC[C@]4(CNC(=O)C4)C3)nccc12,2%
18,Fc1ccccc1N1CCN(c2c3c(nc4nc(Cc5ccc(Cl)cc5)nn24)CCCC3)CC1,7%
19,CN1CCCC(CN2C(=O)C3CCCN3C2=O)C1c1cccc(Cl)c1 (configuration not stated),-5%
20,CCn1nc(C)c(CN(C)S(=O)(=O)c2ccc(N3CCCC3=O)cc2)c1C,-1%
21,O=C(CC1COCCN1C(=O)C1CCc2ccccc21)c1ccco1 (configuration not stated),-17%
22,c1ccc(Oc2ccc(CNCc3nnc4n3CCCCC4)o2)cc1,9%
23,CC(C)(C)OC(=O)NC1CCCN(CC2CN(c3ccc(F)cc3)C(=O)O2)C1 (configuration not stated),-8%
24,O=C(CN1C(=O)c2ccccc2C1=O)N1CC(=O)N2CCc3ccccc3[C@@H]2C1,12%
25,Cc1ccc(C)n1[C@@H](CC(=O)O)c1ccco1,3%
26,O=C(CN1C(=O)[C@H]2CCCC2=Nc2ccccc21)NCCCc1ccccc1,-17%

row,SMILES,% Inhibition
1,Cc1nnc(CC(=O)NC2CC(OCc3ccccc3)C2(C)C)o1 (configuration not stated),8%
2,Cc1ccc(C(=O)Nc2cc3c4c(c2)C2CCCC2CN4CC2CCCC32)cc1 (configuration not stated),54%
3,COc1ccc(N(C)S(=O)(=O)c2ccsc2-c2nc(-c3cccnc3)no2)cc1Cl,-2%
4,C[C@@H]1CN(C[C@@H]2CN(CCOCc3ccccc3)C[C@@H]2CO)C[C@H](C)O1,-4%
5,CC1CC1NC(=O)C(NS(C)(=O)=O)C(C)(C)C (configuration not stated),11%
6,Nc1c(-c2ccccc2)nsc1C(=O)NCc1ccccc1,5%
7,Cc1cc(C(=O)N[C@@H](C)CO)c(C)n1-c1nccs1,-4%
8,CC(=O)OCc1c(C)n(C)c(=O)n(C)c1=O,-5%
9,Cn1nc(C(F)(F)F)cc1B1OC(C)(C)C(C)(C)O1,12%
10,O=C(CN1CCCCCC1)Nc1ccc(OCc2ccccc2)cc1,-3%
11,Cc1c(NC(=O)CCc2ccsc2)nnn1Cc1ccccc1F,-4%
12,CC(C)c1nc(NC(=O)c2c[nH]nc2-c2c(F)cccc2F)n(C)n1,9%
13,CCCC(CCC)C(=O)Nc1ccc(O)cc1C(=O)O,14%
14,CCn1cc(NC(=O)CCn2ncc3c(Cl)cccc32)cn1,-1%
15,O=C1OC2(c3ccccc31)C(c1ccccc1)CC(=O)N2Cc1ccccc1 (configuration not stated),-21%
16,CCOC(=O)NC(c1ccccc1F)C1CCCCC1=O (configuration not stated),1%
17,CCc1cc(C(=O)N2CCCCCC2)c2c(C3CC3)nn(-c3ccc(F)cc3)c2n1,5%
18,Cn1ccnc1[C@@H](NC(=O)c1ccnn1C(F)F)C(C)(C)CO,10%
19,O=C(Cc1ccc(Cl)cn1)Nc1ccnn1[C@H]1CCCc2ccccc21,-12%
20,CCc1ccc(C2=C[C@@H](c3cccc(OC)c3)n3ncc(C(=O)Nc4ccc(C)cc4)c3N2)cc1,70%
21,Cc1cc(C)n2c(=O)c3ccccc3nc2c1C#N,-21%
22,CC1CCCC(N2C(=O)c3ccccc3C2NCc2ccccc2)C1C (configuration not stated),14%
23,CC[C@H]1C(=O)NCCN1C(=O)c1cc(C)n[nH]1,13%
24,COc1cccc(-c2noc3nc(C)cc(C(=O)NCCCn4cccn4)c23)c1,-2%
25,O=C1CCC(=O)N1c1cnn(Cc2ccccc2)c1,8%
26,Oc1cc(OCc2ccccc2F)ccc1-c1[nH]ncc1-c1ccccc1,72%

row,SMILES,% Inhibition
1,CCOc1c(CNC(C)(C)C)cccc1OC,-3%
2,CC1=NN(c2ccccc2)C(=O)[C@H]1N1C(=O)c2ccccc2C1=O,5%
3,O=C(Nc1nccs1)C1C2CCC(O2)C1C(F)(F)F (configuration not stated),9%
4,CC1CCN(Cc2ccc(CNCc3c[nH]nc3-c3ccc(F)cc3)cc2)CC1,50%
5,Cc1cccc(-c2nc(C[N+]3(Cc4nc(-c5cccc(C)c5)oc4C)CCCC3)c(C)o2)c1,55%
6,O=C(O)c1ccc(-c2n[nH]c(=O)c3c2CCCC3)cc1,-6%
7,Oc1ccc([C@@H](c2cn(-c3nc(-c4ccc(Cl)cc4)cs3)nc2-c2ccccc2)c2c(-c3ccccc3)nn(-c3nc(-c4ccc(Cl)cc4)cs3)c2O)cc1,13%
8,CC(C)Cc1cc(C(=O)N2CCc3c(C#N)cccc32)cc(O)n1,-4%
9,COc1ccc(-c2cc3ncc(C(=O)c4cc(Cl)ccc4O)cn3n2)cc1,78%
10,CCN(C)C1(CNC(=O)c2ccc(-c3cc(F)ccc3O)cc2)CCCC1,11%
11,CCn1nccc1CN(C)C(=O)c1cc(C)c(C)s1,9%
12,CC1=C(C(=O)Nc2cccc(Cl)c2)[C@H](c2csnn2)NC(=O)N1,-19%
13,Cc1cccc(Oc2cc(N)cc(Oc3cccc(C)c3)c2)c1,8%
14,CN1CCc2ncnc(Nc3ccc4nc(N5CCCC5)sc4c3)c2C1,3%
15,Cc1ccc2c(-c3ccccc3)c(-c3nnnn3-c3ccccc3)cnc2c1,-12%
16,Cc1[nH]n(-c2nc(C(F)(F)F)cc(=O)[nH]2)c(=O)c1CCO,-9%
17,CC(C)n1nccc1NC(=O)c1c[nH]c2ccc(F)cc2c1=O,-4%
18,CC1=NN(c2ccccc2)C(O)C1C(c1ccccc1O)C1C(C)=NN(c2ccccc2)C1O (configuration not stated),13%
19,CCOC(=O)c1c(C(F)(F)F)[nH]n2c(C(F)F)nnc12,8%
20,Cc1nn(Cn2cc(NC(=O)c3ccc(COc4ccc(F)cc4F)o3)cn2)c(C)c1Cl,7%
21,CNC[C@H]1CCCN1C(=O)c1ccc(-c2noc(C(F)(F)F)n2)cc1,12%
22,CCC1CCCCC1N1CCC(NC(=O)C2CCOCC2)CC1 (configuration not stated),-19%
23,N#Cc1cccc(-c2n[nH]c3c2CN(c2ccc(-c4ccccc4)nn2)CC3)c1,100%
24,COc1cccc(CNC(=O)Nc2cc3c(cc2N2CCCCC2)n(C)c(=O)n3C)c1,-6%
25,CCc1ncoc1C(=O)NCC(F)(F)c1cc(F)cc(F)c1,-19%
26,O=C(N[C@@H](N1CCCCC1)C(Cl)(Cl)Cl)c1cccnc1,11%

row,SMILES,% Inhibition
1,CCc1cccc(NC(=O)N2CCN(C3=CC4=NC[C@H](C)N4C=N3)CC2)c1,46%
2,Nc1n[nH]c2ccc(C3OCCCO3)cc12,6%
3,Cn1cc(-c2noc(-c3ccc(C#N)cc3)n2)ccc1=O,12%
4,O=C(Cn1cnc2cc3c(cc21)OCCCO3)Nc1ccc(F)cc1,13%
5,O=C(NCc1ccc2c(c1)OCO2)C(F)(F)C(F)(F)C(F)(F)C(F)(F)C(=O)NCc1ccc2c(c1)OCO2,-19%
6,CCCC1(CNC(=O)Nc2nc(CS(C)(=O)=O)no2)CC1,6%
7,CCc1cc(C(=O)N(CC)c2ccccc2)c2c(C)noc2n1,-6%
8,COc1ccc(Cl)cc1S(=O)(=O)c1cnc(N2CCOCC2)nc1N,10%
9,Cc1ccc(C(=O)C[n+]2cc(-c3ccc(-c4ccccc4)cc3)n(C)c2N)cc1,4%
10,CCCN(Cc1cnn(C)c1)C(=O)NCc1ccc(C)nc1OC,-20%
11,COc1ccccc1CC(=O)NC[C@H](C)O,14%
12,Cc1cc(Cl)ccc1S(=O)(=O)N[C@@H](C)C#N,5%
13,COc1ccc(S(=O)(=O)N2CCC(c3cc(N)on3)CC2)cc1Cl,40%
14,COc1cc(Cl)c(C)cc1NC(=O)c1nc2cc(C)c(C)cc2n(C)c1=O,-4%
15,Oc1ccc2ccccc2c1-c1nc2ncccn2c1Nc1ccc(Cl)cc1,9%
16,CC1CCN(C(=O)Cc2csc(NC(=O)c3cccc(O)c3)n2)CC(C)C1 (configuration not stated),1%
17,COc1c(Br)cc(Br)cc1C(N)=O,2%
18,COc1ccc(N=C2NC(=O)CC(=O)N2)cc1,-3%
19,Cc1cccc(NC(=O)[C@@H](C#N)C(=O)c2ncoc2C)c1,-17%
20,CC(C)O[C@@H]1CCN(C[C@H](O)c2ccc(C(F)(F)F)cc2)C1,42%
21,c1ccc(C2=NN(c3ccc(-c4cc(-c5ccccc5)[n+](-c5ccccc5)c(-c5ccccc5)c4)cc3)[C@H](c3ccccc3)C2)cc1,97%
22,COc1ccc(-n2nc(C(=O)N3CCN(c4ccccc4)CC3)c(=O)cc2OC)cc1,3%
23,CC(C)(C)CC(C)(C)N1C[C@@H](C(=O)O)CC1=O,-5%
24,COc1cccc(N2CCN(C(=O)c3cc4c(s3)CCN(C(C)=O)C4)CC2)c1,3%
